Data taken from US11578136B2, “Compositions and methods for treating cancer” (INNATE PHARMA, priority 2017, dated 2023).

T1: soluble recombinant human CD39 protein (Homo sapiens, UniProt P49961)
T1 construct: made in house; host or cells: CHO cells
T1 sequence (P49961 with tags, fused parts or gaps): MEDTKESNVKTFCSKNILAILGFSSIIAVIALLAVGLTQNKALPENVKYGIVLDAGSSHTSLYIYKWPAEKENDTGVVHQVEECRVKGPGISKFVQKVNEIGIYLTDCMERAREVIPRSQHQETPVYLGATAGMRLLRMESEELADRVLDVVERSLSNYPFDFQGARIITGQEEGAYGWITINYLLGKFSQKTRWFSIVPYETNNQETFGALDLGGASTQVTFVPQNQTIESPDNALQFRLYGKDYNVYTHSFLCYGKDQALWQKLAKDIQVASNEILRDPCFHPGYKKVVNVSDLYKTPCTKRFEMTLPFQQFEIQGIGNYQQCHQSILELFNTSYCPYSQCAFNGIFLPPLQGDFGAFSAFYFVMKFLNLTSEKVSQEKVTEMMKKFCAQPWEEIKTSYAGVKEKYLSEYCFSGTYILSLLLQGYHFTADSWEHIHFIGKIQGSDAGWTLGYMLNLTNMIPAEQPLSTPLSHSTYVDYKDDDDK

T2: cell-membrane bound CD39 (Homo sapiens, UniProt P49961)
T2 sequence (P49961 1-510): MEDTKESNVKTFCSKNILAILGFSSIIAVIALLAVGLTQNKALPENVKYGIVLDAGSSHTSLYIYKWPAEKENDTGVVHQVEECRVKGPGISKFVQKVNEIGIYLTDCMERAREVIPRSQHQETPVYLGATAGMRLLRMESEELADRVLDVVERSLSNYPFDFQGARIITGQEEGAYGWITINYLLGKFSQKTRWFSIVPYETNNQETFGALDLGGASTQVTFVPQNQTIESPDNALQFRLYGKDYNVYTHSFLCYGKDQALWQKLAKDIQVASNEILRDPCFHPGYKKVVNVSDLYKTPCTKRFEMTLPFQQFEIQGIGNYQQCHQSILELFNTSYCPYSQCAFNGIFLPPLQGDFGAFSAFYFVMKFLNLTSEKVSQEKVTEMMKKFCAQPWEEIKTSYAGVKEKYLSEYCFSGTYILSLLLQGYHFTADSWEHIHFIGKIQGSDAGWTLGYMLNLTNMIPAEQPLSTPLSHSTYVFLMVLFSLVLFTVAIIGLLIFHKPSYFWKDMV

T3: CD39 mutants transfected in Hek-293T cells (Homo sapiens, UniProt P49961, E143A/N99A/Q96A/R147E)
T3 construct: expressed in transfected cells; host or cells: HEK-293T cells
T3 sequence (P49961 1-510 Q96A/N99A/E143A/R147E): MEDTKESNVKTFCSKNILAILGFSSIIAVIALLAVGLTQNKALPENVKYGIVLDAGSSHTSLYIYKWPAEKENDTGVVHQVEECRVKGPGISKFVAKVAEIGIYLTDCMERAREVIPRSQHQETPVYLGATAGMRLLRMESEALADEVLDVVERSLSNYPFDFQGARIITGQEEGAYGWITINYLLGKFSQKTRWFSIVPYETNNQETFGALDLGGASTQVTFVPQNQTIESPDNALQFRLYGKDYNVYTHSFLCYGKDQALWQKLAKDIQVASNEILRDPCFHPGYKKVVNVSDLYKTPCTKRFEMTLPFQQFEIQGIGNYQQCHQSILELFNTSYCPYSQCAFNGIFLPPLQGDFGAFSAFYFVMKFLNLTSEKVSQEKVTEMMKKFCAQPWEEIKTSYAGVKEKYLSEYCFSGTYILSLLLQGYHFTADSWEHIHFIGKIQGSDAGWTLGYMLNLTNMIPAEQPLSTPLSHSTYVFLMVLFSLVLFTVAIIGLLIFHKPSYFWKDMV

T4: CD39 mutants transfected in Hek-293T cells (Homo sapiens, UniProt P49961, E142K/M139A/R138A)
T4 construct: expressed in transfected cells; host or cells: HEK-293T cells
T4 sequence (P49961 1-510 R138A/M139A/E142K): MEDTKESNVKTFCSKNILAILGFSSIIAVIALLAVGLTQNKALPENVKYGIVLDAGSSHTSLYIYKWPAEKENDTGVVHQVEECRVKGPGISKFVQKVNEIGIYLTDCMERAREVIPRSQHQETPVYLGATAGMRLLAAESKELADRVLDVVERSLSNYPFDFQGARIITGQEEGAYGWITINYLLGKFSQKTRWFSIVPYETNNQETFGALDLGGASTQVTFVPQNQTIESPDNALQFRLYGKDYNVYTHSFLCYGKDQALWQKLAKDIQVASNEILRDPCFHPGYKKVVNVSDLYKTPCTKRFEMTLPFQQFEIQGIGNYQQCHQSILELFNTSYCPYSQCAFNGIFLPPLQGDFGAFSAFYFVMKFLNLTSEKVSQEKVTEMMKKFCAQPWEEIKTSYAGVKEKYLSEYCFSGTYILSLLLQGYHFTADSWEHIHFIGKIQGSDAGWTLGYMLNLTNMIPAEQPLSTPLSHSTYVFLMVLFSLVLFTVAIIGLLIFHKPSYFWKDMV

T5: CD39 mutants transfected in Hek-293T cells (Homo sapiens, UniProt P49961, D107A/E100A/K87A)
T5 construct: expressed in transfected cells; host or cells: HEK-293T cells
T5 sequence (P49961 1-510 K87A/E100A/D107A): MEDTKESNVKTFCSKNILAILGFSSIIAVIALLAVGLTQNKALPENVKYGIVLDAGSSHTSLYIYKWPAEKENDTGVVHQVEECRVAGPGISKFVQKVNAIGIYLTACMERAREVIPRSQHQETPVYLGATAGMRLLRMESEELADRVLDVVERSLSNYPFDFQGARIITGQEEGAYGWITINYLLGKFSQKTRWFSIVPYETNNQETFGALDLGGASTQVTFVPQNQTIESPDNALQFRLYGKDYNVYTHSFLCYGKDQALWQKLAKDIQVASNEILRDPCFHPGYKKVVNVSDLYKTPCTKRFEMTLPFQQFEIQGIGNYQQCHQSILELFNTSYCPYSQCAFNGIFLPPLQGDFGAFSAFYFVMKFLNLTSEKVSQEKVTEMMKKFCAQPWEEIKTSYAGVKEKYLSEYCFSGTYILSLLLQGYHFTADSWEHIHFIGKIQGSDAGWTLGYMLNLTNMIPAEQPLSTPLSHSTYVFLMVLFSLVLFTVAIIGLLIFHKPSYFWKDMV

B1: I-395: anti-CD39 antibody, VH SEQ ID NO: 14, VL SEQ ID NO: 15 (antibody, listed as Mus musculus, V domains shown)
VH: EVQLQQSGPELVKPGASVRMSCKASGYTFTDYNMHWVKKNHGKGLEWIGYINPNNGGTTYNQKFKGKATLTVNTSSKTAYMELRSLTSEDSAVYYCTRGGTRFASWGQGTLVTVSA
VL: NIVLTQSPASLAVSLGQRATISCRASESVDNYGISFMYWFQQKPGQPPKLLIYAASTQGSGVPARFSGSGSGTDFSLNIHPMEEDDTAMYFCQQSKEVPFTFGSGTKLEIK
B2: I-396: anti-CD39 antibody, VH SEQ ID NO: 22, VL SEQ ID NO: 23 (antibody, listed as Mus musculus, V domains shown)
VH: EVQLQQSGAELVKPGASVKLSCIVSGFNIKDTYINWVKQRPEQGLEWIGRIDPANGNTKYDPKFQGKATMTSDTSSNTAYLHLSSLTSDDSAVYYCARWGYDDEEADYFDSWGQGTTLTVSS
VL: DIVLTQSPASLAVSLGQRATISCRASESVDNYGISFMNWFQQKPGQPPKLLIYAASNQGSGVPARFSGSGSGTDFSLNILPMEEVDAAMYFCHQSKEVPWTFGGGTKLEIK

Legend:
[1] = target: T1, soluble recombinant human CD39 protein; assay: Inhibition of the enzymatic activity of soluble CD39 (Cell Titer Glo); format: biochemical; settings: for relative potency of inhibition of soluble CD39 (FIG. 2B): ranking among I-394, I-395, I-396; for inhibition of the enzymatic activity of soluble CD39 protein: result in words, 400 ng/ml sCD39, 20 μM ATP
Method: The inhibition by antibodies of the enzymatic activity of soluble CD39 protein produced was evaluated using Cell Titer Glo™ (Promega, reference G7571) that allows assessment of ATP hydrolysis through use of a reagent that generates a luminescent signal proportional to the amount of ATP present. In this way, inhibition of the soluble-CD39-meidatd ATP hydrolysis can be assessed. Briefly, dose ranges of anti-CD39 antibodies from 100 μg/ml to 6×10^−3 μg/ml were incubated with 400 ng/ml of soluble recombinant human CD39 protein having the amino acid sequence described in the Methods section (SEQ ID NO: 45), for 1 h at 37° C. 20 μM ATP was added to the plates for 30 additional minutes at 37° C. before addition of CTG (Cell Titer Glo) reagent. Emitted light was quantified using an Enspire™ luminometer after a short incubation period of 5 min in the dark. Anti-CD39 antibody efficacy was determined by comparing emitted light in presence of antibody with ATP alone (maximal light emission) and ATP together with soluble CD39 protein (minimal light emission).

cell-membrane bound CD39 = target: T2, cell-membrane bound CD39; assay: Inhibition of the enzymatic activity of cellular CD39 (cells not specified); format: cell-based; settings: for inhibition of ATPase activity of CD39 protein in cells / cell-membrane bound CD39: result in words
Method: The inhibition of the CD39 enzymatic activity in CD39-expressing cells by antibodies was evaluated using Cell Titer Glo™ (Promega, reference G7571) that allows assessment of ATP hydrolysis through use of a reagent that generates a luminescent signal proportional to the amount of ATP present. The assay was thus designed to permit assessment of the inhibition of ATP hydrolyzed by CD39 in the cell culture supernatant. Briefly, 5×10^4 Ramos human lymphoma cells, 5×10^3 human CD39-, cynomolgus CD39- and mouse CD39-expressing CHO cells, were incubated 1 hour at 37° C. with anti-CD39 antibodies from 30 μg/ml to […]. Cells were then incubated with 20 μM ATP for 1 additional hour at 37° C. Plates were centrifuged for 2 min at 400 g and 50 μl cell supernatant are transferred in a luminescence microplate (white wells). 50 μl CellTiter-Glo® Reagent (CTG) was added to the supernatant and emitted light was quantified after a 5 min incubation in the dark using a Enspire™ luminometer. Anti-CD39 antibody efficacy was determined by comparing emitted light in presence of antibody with ATP alone (maximal light emission) and ATP together with cells (minimal light emission).
The two antibodies that have been reported to inhibit the ATPase activity of CD39 in cellular assays (BY40 and BY12) were assessed to determine whether are able to inhibit the ATPase activity of recombinant soluble CD39 protein. The inhibition by antibodies of the enzymatic activity of soluble CD39 protein produced as described above was evaluated using Cell Titer Glo™ (Promega, reference G7571). The inhibition by antibodies of the enzymatic activity of cellular CD39 protein was evaluated as indicated above.

[2] = target: T3, CD39 mutants transfected in Hek-293T cells; assay: Epitope mapping: binding to CD39 mutants by flow cytometry; settings: mutant 5: Q96A, N99A, E143A, R147E; vs wild-type CD39
Method: (§1) CD39 mutants were generated by PCR. The sequences amplified were run on agarose gel and purified using the Macherey Nagel PCR Clean-Up Gel Extraction kit (reference 740609). The purified PCR products generated for each mutant were then ligated into an expression vector, with the ClonTech InFusion system. The vectors containing the mutated sequences were prepared as Miniprep and sequenced. After sequencing, the vectors containing the mutated sequences were prepared as Midiprep using the Promega PureYield™ Plasmid Midiprep System. HEK293T cells were grown in DMEM medium (Invitrogen), transfected with vectors using Invitrogen's Lipofectamine 2000 and incubated at 37° C. in a CO2 incubator for 48 hours prior to testing for transgene expression. The targeted amino acid mutations in the table 1 below are shown using numbering of SEQ ID NO: 1.
(§2) In order to define the epitopes of anti-CD39 antibodies, we designed CD39 mutants defined by substitutions of amino acids exposed at the molecular surface over the surface of CD39. Mutants were transfected in Hek-293T cells, as shown in the table 1, using numbering of SEQ ID NO: 1.
(§3) Dose-ranges of I-394 (10-2.5-0.625-0.1563-0.0391-0.0098-0.0024-0.0006 μg/ml) are tested on the 20 generated mutants by flow cytometry. […] Mutant 5 contains amino acid substitutions at residues Q96, N99, E143 and R147.
(§4) Mutants were transfected in Hek-293T cells, as shown in the table 1, using numbering of SEQ ID NO: 1. Dose-ranges of antibodies I-394 were tested on the 20 mutants by flow cytometry. […] Mutant 19 includes substitutions at residues R138, M139 and E142. The core epitope of I-394 thus includes one or more (or all of) residues R138, M139 and E142.
(§5) Mutants were transfected in Hek-293T cells, as shown in the table 1, using numbering of SEQ ID NO: 1.Dose-ranges of test antibodies (10-2.5-0.625-0.1563-0.0391-0.0098-0.0024-0.0006 μg/ml) are tested on the 20 generated mutants by flow cytometry.

[3] = target: T4, CD39 mutants transfected in Hek-293T cells; assay: as above; settings: mutant 19: R138A, M139A, E142K; vs wild-type CD39
Method: as §1, §2, §3, §4, §5

[4] = test system: CD39 mutants transfected in Hek-293T cells; assay: as above; parameters: species or system human; settings: remaining mutants of Table 1
Method: as §1, §2, §3, §4, §5

[5] = target: T5, CD39 mutants transfected in Hek-293T cells; assay: as above; settings: mutant 15: K87A, E100A, D107A
Method: as §1, §2, §3, §4, §5

Molecule | relative potency of inhibition of soluble CD39 (FIG. 2B) [1] | inhibition of the enzymatic activity of soluble CD39 protein [1] | potency and maximal inhibition of cellular CD39 compared to BY40 (FIG. 2A) (cell-membrane bound CD39; compared to BY40) | inhibition of ATPase activity of CD39 protein in cells / cell-membrane bound CD39 (cell-membrane bound CD39) | binding to cells expressing mutant 5 of CD39 [2] | binding to cells expressing mutant 19 of CD39 [3] | binding to any other mutant of the 20 CD39 mutants [4] | binding to mutant 15 of CD39 [5]
B1 | followed by I-395 | inhibited | greater potency and maximal inhibition | inhibit | loss of binding | loss of binding |  | 
B2 | lower potency | inhibited |  | inhibit |  |  | without loss of binding | loss of binding
